Measured values published in PubChem BioAssay AID1508623 (National Center for Advancing Translational Sciences (NCATS), 2021).
The campaign covered roughly 48,000 compounds. About 450 (0.94%) were called active. Inconclusive results (about 19%) are left out. Calls follow the shape of the dose curve; as a rule, active = well fitted inhibition curve with a large enough effect; inconclusive = small, poorly fitted or top-dose-only effect; inactive = no such curve, though single readings can be large or run the other way. This is one part of the list.

Test: Primary qHTS for Identification of Small Molecule Inhibitors of Huntingtin Promoter Activity; also: nearly all actives have a fitted effect of over 50% in size
Conditions: HEK293 HTT promoter firefly luciferase reporter (activity 0% = vehicle and -100% = no light), 24 h; series mostly up to 57.5 µM; activity change, negative = inhibition: at the top concentration
Outline: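 HEK293 luciferase promoter-reporter cells (2,500/well) plated 24 h, then compounds added at up to 57.5 uM final for 24 h at 37 °C. Firefly luminescence by Dual-Glo, normalized to vehicle (0%) and zero RLU (-100%).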
Potency is read from the fitted curve at half-maximal effect.

Row | SMILES | activity change, negative = inhibition | Potency
1 | Cc1nn2c(=O)cc(COC(=O)COc3ccccc3C)nc2s1 | inactive: -11.5% | 
2 | O=C(O)C1=CC(c2ccc(Br)cc2)n2ncnc2N1 (stereo not given) | inactive: -4.67% | 
3 | CCOC(=O)[C@H](CCc1ccccc1)N[C@@H](C)C(=O)N1Cc2ccccc2C[C@H]1C(=O)O | inactive: 3.5% | 
4 | CCOc1ccc(C(=O)c2cn(CC(=O)Nc3ccc(C)c(C)c3)c3ccc(OCC)cc3c2=O)cc1 | inactive: -24.2% | 
5 | COc1ccc(N2CC(NC(=O)c3ccc(S(=O)(=O)N4CCOCC4)cc3)CC2=O)cc1 (stereo not given) | inactive: -4.9% | 
6 | COc1ccccc1NC(=O)C1CCN(c2ncnc3c2nc2n3CCCCC2)CC1 | inactive: -22% | 
7 | CCS(=O)(=O)c1nc(S(=O)(=O)c2ccc(C)cc2)c(NCc2ccccc2Cl)s1 | inactive: -24.4% | 
8 | CCOC(=O)CSc1ncnc2c1c(-c1ccccc1)cn2-c1ccc(OC)cc1 | inactive: 21.2% | 
9 | COc1ccc(OCC(=O)N2CCN(C(=O)c3ccc(OC)cc3)CC2)cc1 | inactive: -7.09% | 
10 | CCOc1ccc(Nc2nc(Nc3ccc(OCC)cc3)nc(N3CCOCC3)n2)cc1 | inactive: -6.86% | 
11 | COc1ccc(CCNC(=O)CCCn2c(=O)c3cccn3c3ccc(F)cc32)cc1OC | inactive: -7.74% | 
12 | O=C(COc1ccc(Br)cc1)Nc1cccc2cccnc12 | inactive: -1.91% | 
13 | COC(=O)c1ccc(Cl)cc1NC(=O)N1CCC(CN2CCC(C)CC2)CC1 | inactive: -15% | 
14 | CCc1cccc(NC(=O)c2coc(=O)c3ccccc23)c1 | inactive: -20.7% | 
15 | COc1cccc(NC(=O)c2oc3ccccc3c2NC(=O)Cc2cccc(C)c2)c1 | inactive: -21.6% | 
16 | Cc1cn2c(=O)cc(COC(=O)C(C)Oc3ccccc3)nc2s1 (stereo not given) | inactive: -19.1% | 
17 | CCc1ccc(-n2nc(CO)c(C(=O)NCCCCc3ccccc3)n2)cc1 | inactive: -5.76% | 
18 | O=C(NCc1ccc(Cl)cc1)c1cc(-c2ccc(F)cc2)on1 | inactive: 4.17% | 
19 | CCOc1ccc(S(=O)(=O)n2nc(C)c(S(=O)(=O)N3CCCCC3)c2C)cc1 | inactive: -7.6% | 
20 | O=C(Nc1ccc(Cl)cc1C(F)(F)F)c1cc(S(=O)(=O)N2CCOCC2)ccc1F | inactive: -16.3% | 
21 | CC(C)(C)OC(=O)N1CCC(c2c(C(=O)NCc3ccco3)cnn2-c2ccccc2Cl)CC1 | inactive: -7.79% | 
22 | Cc1nn(CCCC(=O)NCc2ccccc2)c(=O)c2cc3sccc3n12 | inactive: -9.89% | 
23 | COC(=O)c1ccccc1NS(=O)(=O)c1ccc2c(c1)CCCN2C(C)=O | inactive: -21.1% | 
24 | COc1ccc(C(=O)Nc2cc3c(cc2N2CCCC2)n(C)c(=O)c(=O)n3C)cc1OC | inactive: -26.7% | 
25 | N/C(=N\N=C\c1ccc(Cl)cc1)N/N=C/c1ccc(Cl)cc1 | inactive: 1.91% | 

Row | SMILES | activity change, negative = inhibition | Potency
26 | CCCC(=O)n1nc(-c2cccnc2)nc1NCc1ccc(OC)cc1 | inactive: -11.8% | 
27 | Cc1cccc(C)c1NC(=O)Cn1c(=O)n(Cc2ccc3c(c2)OCO3)c(=O)c2oc3ccccc3c21 | inactive: -4.42% | 
28 | CCOc1cc(C(=O)Nc2ccc(-c3nc4ccccc4s3)cc2Cl)cc(OCC)c1OCC | inactive: 31.7% | 
29 | CCOc1ccc(OCC)c(NC(=O)C(NS(=O)(=O)c2cccs2)c2ccccc2)c1 (stereo not given) | inactive: -20% | 
30 | COc1ccc(C(=O)Nc2cc(S(=O)(=O)c3ccc(Cl)cc3)c(O)c(C)c2C)cc1 | inactive: 11.8% | 
31 | O=C(Nc1ccc(Br)cc1)C(Cc1ccccc1)NS(=O)(=O)c1cccc2nsnc12 (stereo not given) | inactive: -17.4% | 
32 | COc1ccccc1NC(=O)Cn1nc(-c2ccc(C)cc2)c2c(c1=O)CCCC2 | inactive: -22.1% | 
33 | Cc1ccc(CNC(=O)c2c(C)oc3nc(C)nc(N4CCOCC4)c23)cc1 | inactive: -4.41% | 
34 | CCc1ccc(-n2nc3cc(C)c(NC(=O)c4cc(OC)cc(OC)c4)cc3n2)cc1 | inactive: 7.45% | 
35 | Cc1cccc(CSCc2ccc(C(=O)NCCc3ccccc3)o2)c1 | inactive: 0.0114% | 
36 | CC(C)c1ccc2oc3nc(N)c(C(=O)O)cc3c(=O)c2c1 | inactive | 
37 | COc1ccccc1CCNC(=O)Cc1c(C)c2cc3c(C)coc3cc2oc1=O | inactive: 3.08% | 
38 | O=C(c1cc2ccccc2oc1=O)N1CCN(c2ccc(F)cc2)CC1 | inactive: -0.223% | 
39 | Nc1c(-c2nc(-c3ccccc3)no2)nnn1CC(=O)Nc1cccc(F)c1 | inactive: -4.96% | 
40 | CCOc1cc(-c2ccc(OC(=O)c3ccc(C)cc3)c(OC)c2)cc(=O)c2c(C)oc(C)c12 | inactive: -19% | 
41 | CCN(CC)CCN(C(=O)c1ccco1)c1nc2cc(C)cc(C)c2s1 | inactive: -4.45% | 
42 | CC(=O)c1ccc(NC(=O)CN(C)S(=O)(=O)c2cc3c(cc2Cl)NC(=O)CO3)cc1 | inactive: -8.75% | 
43 | CCOC(=O)c1ccc(Nc2c(-c3cccc(O)c3)nc3nc[nH]n23)cc1 | inactive: -22.5% | 
44 | N#Cc1c(-n2ncnc2-c2ccccc2C(F)(F)F)sc2c1CCCCC2 |  | active: 1.12 µM
45 | O=C(NCc1cccs1)c1ccc(CSc2nc3ccncc3n2Cc2ccccc2)cc1 | inactive: 0.392% | 
46 | CC1CCC(NC(=O)c2ccc(CS(=O)(=O)c3cccc(C(F)(F)F)c3)o2)CC1 (stereo not given) | inactive: -25.7% | 
47 | COc1cccc(C2=NS(=O)(=O)N(C)C(C(=O)Nc3ccccc3SC)=C2)c1 | inactive: -11.1% | 
48 | Cc1ccc(C)c(Cn2c(=O)n(Cc3ccccc3)c(=O)c3c2c2cc(C)ccc2n3C)c1 | inactive: 15.9% | 
49 | Cc1ccc(C(=O)Nc2ccc(S(=O)(=O)Nc3onc(C)c3C)cc2)cc1 | inactive: 0% | 
50 | CCOC(=O)c1ccc(NC(=O)Cn2c(=O)cc(C(F)(F)F)c3c(C)nn(C)c32)cc1 | inactive: 0% | 
